# Results as given in PubChem BioAssay AID651820 (National Center for Advancing Translational Sciences (NCATS), 2012).
# In all, about 340,000 compounds went through this assay and about 12,000 (3.5%) were called active. This list was built around the results that the source calls inconclusive (neither active nor inactive); the mix of calls is not that of the screen. Calls follow the shape of the dose curve; as a rule, active = well fitted inhibition curve with a large enough effect; inconclusive = small, poorly fitted or top-dose-only effect, or another doubt; inactive = no such curve, though single readings can be large or run the other way. No potency is given beside an inconclusive call; the fits are too rough.
# Test: qHTS Assay for Inhibitors of Hepatitis C Virus (HCV)
# Details: Huh7.5.1 HCVcc-Cre (HCVcc is cell-culture hepatitis C virus) infection, luciferase reporter, 44 h; activity change, negative = inhibition: at 41.8 µM (top of the series)
# Procedure, shortened: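 Whole-lifecycle infectious HCVcc-Cre system; cells 1,000/well, compound then virus (~0.5 moi) added 4 h after plating, 44 h culture. Luciferase read 15 sec following 15 min substrate incubation, room temp.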
# % is scaled to controls: 0 for no effect and ±100 for the full control effect; potency is read from the fitted curve at half-maximal effect; tags tell the direction and shape of the fitted curve.
Compound,Potency,"activity change, negative = inhibition"
CCNc1ccc(C(=O)OCC)cc1NC(=O)c1cccc(S(=O)(=O)N2CCOCC2)c1,"inconclusive [inhibitor, partial curve]",–
Cc1cc(NC(=O)c2sc(Nc3ccc(F)c(Cl)c3)nc2N)no1,"inconclusive [inhibitor, single point]",–
Cc1ccc(-n2nnnc2-c2cnn(-c3ccc(F)cc3)c2C(F)(F)F)cc1,"inconclusive [inhibitor, single point]",–
CC(C)c1ccc(NC2CCCN(C(=O)c3cccs3)C2)cc1 (configuration not stated),inactive,–
COc1cccc(NS(=O)(=O)c2c(C)cc(C)cc2C)c1,inactive,–
CC(C)COc1ccc(Cc2cnc(N)nc2N)cc1,"inconclusive [inhibitor, single point]",–
CCn1c(Cc2cccs2)nnc1SCC(=O)Nc1ccc(OC)c(OC)c1,inactive,–
Cc1ccccc1NC(=O)Cc1nc(COC(=O)c2ccc(Cl)c(S(N)(=O)=O)c2)cs1,inactive,–
CC(C)(CCl)C(=O)Nc1ccc(C(F)(F)F)cc1,inactive,–
CC(C)C(=O)N1CCN(c2ccc(NC(=O)c3ccc([N+](=O)[O-])o3)cc2)CC1,"inconclusive [inhibitor, single point]",–
c1ccc2c(CCNc3ncnc4nc[nH]c34)cccc2c1,active: 11.2 µM,–
Cc1ccccc1OCCCn1c(=O)sc2ccccc21,"inconclusive [inhibitor, single point]",–
CCc1ccc(Nc2nnc(SCC(=O)Nc3cccc(S(=O)(=O)NC4=NCCCCC4)c3)s2)cc1,"inconclusive [inhibitor, single point]",–
O=C(Nc1ccc(SC(F)F)cc1)C1CC(=O)N(Cc2ccccc2)C1 (configuration not stated),inactive,–
Cc1sc2ncnc(NCCc3ccc(S(N)(=O)=O)cc3)c2c1C,active: 1 µM,–
COc1ccc(-c2cn3cc(C)ccc3n2)cc1F,inactive,–
COC(=O)c1ccccc1NC(=O)CNc1cc(OC)c(OC)cc1C,"inconclusive [inhibitor, single point]",–
CCC(C)NC(=O)c1cc(CC(C)C)on1 (configuration not stated),inactive,–
CC1CCN(S(=O)(=O)c2ccc(C(=O)Nc3ccccn3)cc2)CC1,"inconclusive [inhibitor, single point]",–
O=C(CN1CCN(S(=O)(=O)c2ccc(Cl)cc2)CC1)NC(=O)NC1CCCCC1,"inconclusive [inhibitor, single point]",–
COc1ccc(C(=O)N[C@H](C(=O)NCCc2ccc3c(c2)OCCO3)C(C)C)cc1,inactive,–
O=C(Nc1cccc(O)c1)c1cc2nc(-c3ccccc3)cc(-c3ccccc3)n2n1,"inconclusive [inhibitor, partial curve]",–
Nc1ccc(C(=O)OCC(=O)N2c3ccccc3Sc3ccccc32)cc1[N+](=O)[O-],"inconclusive [inhibitor, partial curve]",–
c1ccc(CCN2CCN(c3ncnc4c3cnn4-c3ccccc3)CC2)cc1,"inconclusive [inhibitor, single point]",–

Compound,Potency,"activity change, negative = inhibition"
Cc1cccc(NC(=O)N2CC3CC(C2)c2cccc(=O)n2C3)c1 (configuration not stated),inactive,–
COc1ccc(NCC(=O)Nc2cccc(C(F)(F)F)c2)cc1S(=O)(=O)N1CCOCC1,"inconclusive [inhibitor, single point]",–
Cc1nc(CC(C)C)cc(C(=O)N2CCCC(CNS(=O)(=O)c3cccs3)C2)n1 (configuration not stated),inactive,–
CCCc1cc(=O)oc2cc(OCC(=O)NCCc3c[nH]c4ccccc34)ccc12,active: 4.47 µM,–
CCS(=O)(=O)n1nc(-c2ccccc2)nc1SC,inactive,–
CCOc1ccccc1C(=O)Nc1cccc2cccnc12,active: 11.2 µM,–
Cc1nc2ccc(NC(=O)[C@@H](NC(=O)c3c(F)cccc3F)C(C)C)cc2s1,"inconclusive [inhibitor, partial curve]",–
Cc1cccc(NC(=O)c2oc3c(c2C)C(=O)CC(C)(C)C3)n1,"inconclusive [inhibitor, partial curve]",–
C/C(=N\NC(N)=S)c1ccc2c(c1)OCCO2,"inconclusive [inhibitor, partial curve]",–
Cc1c(C)c2c(OCC(=O)N3CCC(O)CC3)cc3c(c2oc1=O)CCC(C)(C)O3,"inconclusive [inhibitor, partial curve]",–
Cc1ccc(NC(=O)C[n+]2cc(-c3ccc(C)cc3)n3c2CCC3)cc1,–,inconclusive: -47.6% [inhibitor]
S=C(Nc1ccccc1)Nc1nc2ccccc2n1CCOc1ccc(Br)cc1,"inconclusive [inhibitor, partial curve]",–
Cc1cccc(NC(=O)Cn2c(=O)n(Cc3ccco3)c(=N)c3c4c(sc32)COC(C)(C)C4)c1,"inconclusive [inhibitor, single point]",–
O=c1[nH]c(CN2CCN(c3ccccc3)CC2)nc2scc(-c3ccccc3)c12,"inconclusive [inhibitor, partial curve]",–
COC(=O)C1=C(c2cccc(C#N)c2)C[C@@H]2CC[C@H]1N2C(=O)NCCOc1ccc(OC)cc1,inactive,–
CCCCN(CCCC)S(=O)(=O)c1ccc(NC(=O)Cc2cccs2)cc1,"inconclusive [inhibitor, single point]",–
COc1ccc(S(=O)(=O)N(C)C2(C)CCS(=O)(=O)C2)cc1OC (configuration not stated),inactive,–
COc1ccc(CCNC(=O)c2c(C)nn(CC(C)C)c2Cl)cc1OC,"inconclusive [inhibitor, single point]",–
COc1ccc(CNC(=S)N2CCN(S(=O)(=O)c3cccc(F)c3)CC2)cc1,inactive,–
CCc1cc(CNC(=O)c2ccc3nc(Cc4ccc(OC)c(OC)c4)oc3c2)on1,active: 4.47 µM,–
O=C(Nc1cccc(F)c1)C1CC(=O)N(c2ccc(Cl)cc2)C1 (configuration not stated),"inconclusive [inhibitor, full curve, poor fit]",–
O=c1c2ccccc2c(C=Nc2ccccc2O)c(O)n1-c1nccs1,"inconclusive [inhibitor, single point]",–
Cc1ccc(S(=O)(=O)N2CCCCC2)cc1NC(=O)c1ccc2ccccc2n1,inactive,–
COc1ccccc1NC(=O)CSc1nc(SC)ns1,inactive,–

Compound,Potency,"activity change, negative = inhibition"
COc1ccc(Nc2nc3cc(C)ccc3cc2C#N)cc1,"inconclusive [inhibitor, partial curve]",–
Cc1csc(=O)n1CCC(=O)OCC(=O)c1c(N)n(CC(C)C)c(=O)n(C)c1=O,"inconclusive [inhibitor, partial curve]",–
O=C(O)/C=C/C(=O)Nc1ccc(Oc2ccccc2)cc1,inactive,–
CCN(CC)C(=O)Cn1nnc(-c2ccc(C)o2)n1,inactive,–
Cc1nn(C(C)C(=O)NC2CC2)c(=O)c2nn(-c3ccccc3)c(C)c12 (configuration not stated),inactive,–
CCN(CC(=O)NCc1cccs1)C(=O)c1cccc(S(=O)(=O)N(CC)c2ccccc2)c1,"inconclusive [inhibitor, single point]",–
Cc1c(C(=O)NCCSCc2ccccc2Cl)cccc1[N+](=O)[O-],"inconclusive [inhibitor, partial curve]",–
CCN(c1ccccc1)S(=O)(=O)c1ccc(N2CCN(c3ccccc3O)CC2)nc1,"inconclusive [inhibitor, partial curve, poor fit]",–
O=C(Nc1nc2ccc(F)cc2s1)c1ccccn1,"inconclusive [inhibitor, single point]",–
O=C(c1cc2sccc2n1Cc1ccc(F)cc1)N1CCCc2ccccc21,"inconclusive [inhibitor, single point]",–
COc1ccc(S(=O)(=O)N2CCCC2CNC(=O)C(=O)NCc2ccccc2)cc1 (configuration not stated),–,inconclusive: -36.5% [inhibitor]
Cc1ccc(OCCC(=O)OCC(=O)Nc2c(C)nn(-c3ccccc3)c2C)cc1,inactive,–
Cc1ccc(CSc2nnc([C@@H]3CCCN3C(=O)OC(C)(C)C)o2)cc1,active: 22.4 µM,–
O=C(c1ccc(CSc2nc3ccncc3[nH]2)cc1)N1CCCCCC1,inactive,–
CC(C)CN(C(=O)COC(=O)c1cnc(Cl)c(Cl)c1)c1c(N)n(Cc2ccccc2)c(=O)[nH]c1=O,"inconclusive [inhibitor, single point]",–
Cc1cccc(-c2cc(C(=O)N/N=C/c3cccnc3)c3ccccc3n2)c1,inactive,–
Cc1cc(NC(=S)N(CCCN2CCN(C)CC2)Cc2ccco2)ccc1Cl,"inconclusive [inhibitor, single point]",–
CCOC(=O)c1ccc(NC(=O)C2CCCN(S(=O)(=O)c3ccc(F)cc3)C2)cc1 (configuration not stated),"inconclusive [inhibitor, single point]",–
CC(C)c1ccc(S(=O)(=O)N2CCN(C(=O)n3ccnc3)CC2)cc1,inactive,–
COc1cc(C(=O)NCC(=O)OCCN2C(=O)c3ccccc3C2=O)cc(OC)c1OC,"inconclusive [inhibitor, full curve]",–
Cn1c(SCC(=O)Nc2cccc(F)c2)nc2c(c1=O)SCC2,"inconclusive [inhibitor, single point]",–
CCOC(=O)C1(CCOc2ccccc2)CCN(Cc2ccc(-n3cccn3)cc2)CC1,active: 2.51 µM,–
Oc1ccc(-c2csc(Nc3ccccn3)n2)c(O)c1,"inconclusive [inhibitor, partial curve]",–
COc1ccc(C(=O)C2CCCN(Cc3ccc4nonc4c3)C2)c(OC)c1 (configuration not stated),"inconclusive [inhibitor, single point]",–
